# Reference: the supplement of paper PMC3334620
# The full ranking holds about 33,000 sequences; the median of “E-score (-0.5 to 0.5)” is about -0.035, and the highest 2% start at about 0.34. Some of the results follow.
# Biological target: T1, Mot3 (UniProt P54785)
# T1 sequence: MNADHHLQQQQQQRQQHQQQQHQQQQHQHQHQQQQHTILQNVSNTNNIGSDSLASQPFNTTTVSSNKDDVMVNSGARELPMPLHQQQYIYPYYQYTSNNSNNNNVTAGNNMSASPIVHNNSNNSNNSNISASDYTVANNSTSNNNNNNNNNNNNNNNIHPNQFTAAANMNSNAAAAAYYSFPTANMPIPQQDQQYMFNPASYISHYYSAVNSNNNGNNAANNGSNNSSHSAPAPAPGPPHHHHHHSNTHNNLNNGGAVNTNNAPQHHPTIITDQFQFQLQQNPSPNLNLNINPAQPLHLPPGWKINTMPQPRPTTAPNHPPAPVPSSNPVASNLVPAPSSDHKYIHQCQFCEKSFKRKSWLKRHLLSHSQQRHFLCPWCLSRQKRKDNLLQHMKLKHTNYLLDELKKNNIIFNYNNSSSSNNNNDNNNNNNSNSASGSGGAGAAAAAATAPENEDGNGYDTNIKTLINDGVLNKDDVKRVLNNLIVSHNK
# Experiment: PBM E-score (8-mer binding enrichment) (E-score (-0.5 to 0.5)); higher = stronger / more preferred TF binding; most listed sequences are background and not binding sites
# Settings: protein concentration: 200 nM; construct: GST-full length
# Procedure: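 Universal 'all 10-mer' protein binding microarrays (Agilent AMADID 015681) probed with GST-tagged S. cerevisiae TFs (full-length or DBD) made by in vitro transcription/translation (PURExpress), about 100-200 nM. Bound TF was detected with fluorescent anti-GST. Each ungapped 8-mer (which stands for itself and its reverse complement) is scored by the PBM enrichment score (E-score), a modified Wilcoxon-Mann-Whitney statistic from -0.5 to +0.5, computed with the Universal PBM Analysis Suite. Scale: above 0.35 generally sequence-specific binding.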
row,Sequence,PBM E-score
1,CTGATCGC,-0.132
2,AATGAGTG,0.0115
3,ATGCGGTC,-0.0067
4,ACATCTCG,-0.0334
5,AGGCATTC,0.255
6,CCTGCTAG,0.14
7,AAGGATGC,0.116
8,GACGCAAA,-0.0731
9,GCTGACTA,-0.147
10,TAATATAA,0.176
11,GAAGCGCC,-0.121
12,ACTATGCA,0.0508
13,TAGCTTAA,-0.0485
14,GGCGTCTA,0.00538
15,TTAGACAA,0.0947
16,GGTTGTGA,-0.111
17,AAGATGTG,0.0946
18,ACGCCCAC,-0.134
19,GGACTACC,-0.349
20,TCCAAAGA,0.0729
21,CTACTGAG,-0.175
22,CCTCAATA,-0.115
23,ATTACTGA,0.216
24,ACGCACCG,0.0838
25,CGTTGCGA,0.041

row,Sequence,PBM E-score
1,GCGCTGAA,-0.242
2,ATGACCTG,-0.0714
3,AAGAAAAA,0.0945
4,GAGTACCA,0.0202
5,AGGTGTAC,0.0888
6,AGTTCCAT,-0.038
7,AAACACCT,0.0867
8,TATCGTGA,-0.0512
9,CCTTATAC,0.144
10,CAGTCACG,0.335
11,CCTGGTAG,-0.101
12,GGTAACAC,0.258
13,CCGGTGCG,-0.0852
14,CAGTGGTC,-0.168
15,GGTCCTGA,-0.159
16,CACACCGG,-0.0495
17,CACACGCA,0.127
18,CCTAAGCC,-0.15
19,CAAACCAG,-0.049
20,CCCGAACC,-0.0412
21,ACAGCTTG,0.0423
22,ACTCCACT,-0.107
23,CTGCCAGA,-0.171
24,ATATACCG,0.0394
25,CGCAGCTA,-0.244

row,Sequence,PBM E-score
1,AGTACACC,0.052
2,CTTTCACC,-0.00668
3,TAATGCGA,0.094
4,CTGCTGGC,-0.257
5,AAATATTT,0.137
6,CCACTCTA,-0.138
7,AATTTTCA,0.121
8,GACACTCA,-0.124
9,ACCGTCCG,-0.375
10,AATCCGGT,-0.156
11,CGATGGCG,-0.115
12,CAGGGGAC,-0.307
13,ACCTCCCG,-0.249
14,TATCTGCA,-0.176
15,CTTCACCC,-0.126
16,AAATTCTT,-0.0697
17,TACAAGGA,0.33
18,GGCTCCTA,-0.00542
19,ATGTAATA,0.405
20,TTGAGAAA,-0.0424
21,GCGGACCA,-0.18
22,CTGTGGAA,0.0451
23,CAAGATCG,0.0649
24,CTGTAAGC,-0.0275
25,GGTGCATA,-0.129

row,Sequence,PBM E-score
1,GCTAATCC,-0.0829
2,CACTGGGC,-0.147
3,AACGTCGC,0.0102
4,AAGCCGGA,-0.0693
5,CTTGAACA,0.0396
6,CAAGAGCC,-0.155
7,ACGCTGCC,-0.0716
8,ATTGGCAG,-0.0716
9,CAGCAAAG,-0.134
10,TATCTTGA,0.0695
11,GTCTCGAA,-0.111
12,AGTCTCTC,-0.267
13,AAACAATA,0.131
14,CAGCCCGC,-0.251
15,ACGTGCAA,0.133
16,GTTACGAA,0.113
17,GAAACCAC,-0.0434
18,TGCGCTAA,0.139
19,GCCGTTCC,0.111
20,CAAACACG,0.249
21,GACTAGAC,-0.0722
22,GCTCTTTA,-0.142
23,ACATTTAT,0.142
24,ATAAATGG,-0.167
25,CGGGATTA,-0.0775

row,Sequence,PBM E-score
1,ATGACGAG,-0.207
2,GCAACCCC,-0.0374
3,ACTGAGAA,-0.101
4,ACGGACTC,-0.159
5,ATCGTCAA,0.112
6,CACCTTAG,-0.123
7,AGCATTAG,-0.0753
8,ATCGTTGA,-0.0591
9,AAACGGTA,-0.0775
10,ACCCACGT,0.0556
11,CTCTCTGC,-0.112
12,CGGACAAG,-0.221
13,CACTCCCG,-0.251
14,GAGCGACC,-0.321
15,CAAACCCA,0.0262
16,CTAAGAAG,0.0485
17,CGTATCCA,0.00391
18,GAATAGTA,0.0165
19,GAAATGTC,-0.0691
20,AAGATTGA,0.035
21,GGATAAGA,-0.141
22,AACACGCC,0.281
23,AGTAAATC,0.0325
24,GCGGGCCA,-0.267
25,GTGTAATA,0.375

row,Sequence,PBM E-score
1,ATGGCCAA,-0.176
2,CTCTTGTC,-0.0548
3,TACATTAA,0.289
4,AGATTTAG,0.135
5,AATTATCC,0.0544
6,ACATGGTA,0.296
7,ATTCATGA,-0.0408
8,CCACCGAA,0.0128
9,ATGAGACC,0.079
10,ACGCCATC,-0.0834
11,CAAGGGCA,0.128
12,ATCAAAGG,0.0381
13,CGCGTTCA,0.234
14,ATACATGC,0.361
15,CATGCCGG,-0.0291
16,GCAGGAAC,0.463
17,CTATGACA,0.0633
18,GTACACAA,0.323
19,GTACAACA,0.297
20,ACGATGGC,-0.161
21,AACAGAAA,0.108
22,CGTCTTGA,-0.139
23,AGTGCGAC,-0.137
24,CGAAAGAA,0.00039
25,AGCGAGGG,-0.275

row,Sequence,PBM E-score
1,ACCCGAGG,-0.174
2,TGTGTTAA,0.401
3,TACTGGGA,0.0168
4,CTCGTTGC,0.246
5,ATGGTTTA,-0.0389
6,CCATTATA,-0.0283
7,GATCATCA,-0.0369
8,AGGCGACC,0.215
9,GCCAGCCC,-0.0527
10,CCGTAAAC,0.0293
11,CCATGGAC,-0.152
12,ATCGATCA,-0.0672
13,TCACCTGA,-0.0449
14,ACAGAAGT,-0.0833
15,CGAGCCTC,-0.391
16,CCGCAGGA,0.0411
17,ACGAAGGC,0.285
18,ACCGAAGC,-0.108
19,ATCGCGCG,0.0484
20,CGCCGATA,-0.116
21,ACGCCTCT,-0.0227
22,ACATTAGG,0.226
